Assay results as given in patent US6545009B1, “Retinoid-related receptor function regulating agent” (Takeda Chemical Industries, Ltd., priority 1998, dated 2003).
Read-outs that look alike come from different tables or passages of the source. Entries with a single value are a further part of the results.

Work on CCOc1ccc(-c2csc(-c3cccc(C(=O)O)c3)n2)cc1 [Example 96, 3-[4-(4-ethoxyphenyl)-2-thiazolyl]benzoic acid] yielded a melting point (recrystallized from acetone-hexane) of 231 to 232 °C and a melting point (recrystallized from tetrahydrofuran-hexane) of 280 to 281 °C.
